Experimental data from the supplement of paper PMC8728848.
The list shows a part of the results.

Legend:
Test in all cases: glycan array binding signal (z-score within array); higher = stronger binding
Conditions in all cases: glycan notation: IUPAC condensed, linker removed
[1] = biological target: Neu5Ac(a2-3)Gal(b1-3)[Neu5Ac(a2-6)]GalNAc
Procedure, shortened: (§1)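 Glycan array binding is given as a within-array Z-score, which can be read as non-binding when negative. The arrays, 3228 of them, came from the Consortium for Functional Glycomics database and were retained only where the protein sequence was available. Z-scores were averaged across arrays of the same protein sequence at different concentrations or buffers and across linkers.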

[2] = biological target: Neu5Ac(a2-3)Gal(b1-4)Glc
Procedure, shortened: as §1

[3] = biological target: Neu5Ac(a2-3)Gal(b1-4)GlcNAc
Procedure, shortened: as §1

[4] = biological target: Neu5Ac(a2-3)Gal(b1-4)GlcNAc(b1-3)Gal(b1-4)GlcNAc
Procedure, shortened: as §1

[5] = biological target: Neu5Ac(a2-3)Gal(b1-4)GlcNAc(b1-3)Gal(b1-4)GlcNAc(b1-3)Gal(b1-4)GlcNAc
Procedure, shortened: as §1

[6] = biological target: Neu5Ac(a2-3)Gal(b1-4)GlcNAc(b1-3)Gal(b1-4)[Fuc(a1-3)]GlcNAc
Procedure, shortened: as §1

[7] = biological target: Neu5Ac(a2-3)Gal(b1-4)GlcNAc6S
Procedure, shortened: as §1

[8] = biological target: Neu5Ac(a2-3)Gal(b1-4)[Fuc(a1-3)]GlcNAc
Procedure, shortened: as §1

[9] = biological target: Neu5Ac(a2-3)Gal(b1-4)[Fuc(a1-3)]GlcNAc(b1-3)Gal
Procedure, shortened: as §1

[10] = biological target: Neu5Ac(a2-3)Gal(b1-4)[Fuc(a1-3)]GlcNAc(b1-3)Gal(b1-4)GlcNAc
Procedure, shortened: as §1

[11] = biological target: Neu5Ac(a2-3)Gal(b1-4)[Fuc(a1-3)]GlcNAc(b1-3)Gal(b1-4)[Fuc(a1-3)]GlcNAc(b1-3)Gal(b1-4)[Fuc(a1-3)]GlcNAc
Procedure, shortened: as §1

[12] = biological target: Neu5Ac(a2-3)Gal(b1-4)[Fuc(a1-3)]GlcNAc6S
Procedure, shortened: as §1

[13] = biological target: Neu5Ac(a2-3)Gal6S(b1-4)GlcNAc
Procedure, shortened: as §1

[14] = biological target: Neu5Ac(a2-3)Gal6S(b1-4)[Fuc(a1-3)]GlcNAc
Procedure, shortened: as §1

[15] = biological target: Neu5Ac(a2-3)GalNAc
Procedure, shortened: as §1

[16] = biological target: Neu5Ac(a2-3)GalNAc(b1-4)GlcNAc
Procedure, shortened: as §1

[17] = biological target: Neu5Ac(a2-3)[GalNAc(b1-4)]Gal(b1-4)Glc
Procedure, shortened: as §1

[18] = biological target: Neu5Ac(a2-3)[GalNAc(b1-4)]Gal(b1-4)GlcNAc
Procedure, shortened: as §1

[19] = biological target: Neu5Ac(a2-3)[Neu5Ac(a2-6)]GalNAc
Procedure, shortened: as §1

[20] = biological target: Neu5Ac(a2-6)Gal
Procedure, shortened: as §1

[21] = biological target: Neu5Ac(a2-6)Gal(b1-4)Glc
Procedure, shortened: as §1

[22] = biological target: Neu5Ac(a2-6)Gal(b1-4)GlcNAc
Procedure, shortened: as §1

[23] = biological target: Neu5Ac(a2-6)Gal(b1-4)GlcNAc(b1-2)Man(a1-3)[Neu5Ac(a2-6)Gal(b1-4)GlcNAc(b1-2)Man(a1-6)]Man(b1-4)GlcNAc(b1-4)GlcNAc
Procedure, shortened: as §1

[24] = biological target: Neu5Ac(a2-6)Gal(b1-4)GlcNAc(b1-3)Gal(b1-4)GlcNAc
Procedure, shortened: as §1

[25] = biological target: Neu5Ac(a2-6)Gal(b1-4)GlcNAc(b1-3)Gal(b1-4)[Fuc(a1-3)]GlcNAc(b1-3)Gal(b1-4)[Fuc(a1-3)]GlcNAc
Procedure, shortened: as §1

[26] = biological target: Neu5Ac(a2-6)Gal(b1-4)GlcNAc6S
Procedure, shortened: as §1

[27] = biological target: Neu5Ac(a2-6)GalNAc
Procedure, shortened: as §1

[28] = biological target: Neu5Ac(a2-6)GalNAc(b1-4)GlcNAc
Procedure, shortened: as §1

[29] = biological target: Neu5Ac(a2-8)Neu5Ac
Procedure, shortened: as §1

[30] = biological target: Neu5Ac(a2-8)Neu5Ac(a2-3)Gal(b1-4)Glc
Procedure, shortened: as §1

[31] = biological target: Neu5Ac(a2-8)Neu5Ac(a2-3)[GalNAc(b1-4)]Gal(b1-4)Glc
Procedure, shortened: as §1

[32] = biological target: Neu5Ac(a2-8)Neu5Ac(a2-8)Neu5Ac
Procedure, shortened: as §1

[33] = biological target: Neu5Ac(a2-8)Neu5Ac(a2-8)Neu5Ac(a2-3)Gal(b1-4)Glc
Procedure, shortened: as §1

[34] = biological target: Neu5Ac(a2-8)Neu5Ac(a2-8)Neu5Ac(a2-3)[GalNAc(b1-4)]Gal(b1-4)Glc
Procedure, shortened: as §1

[35] = biological target: Neu5Ac(a2-8)Neu5Ac(a2-8)Neu5Ac(a2-8)Neu5Ac(a2-3)[GalNAc(b1-4)]Gal(b1-4)Glc
Procedure, shortened: as §1

[36] = biological target: Neu5Ac(b1-6)GalNAc
Procedure, shortened: as §1

[37] = biological target: Neu5Ac(b2-6)Gal(b1-4)GlcNAc
Procedure, shortened: as §1

[38] = biological target: Neu5Ac9Ac(a2-6)Gal(b1-4)GlcNAc
Procedure, shortened: as §1

[39] = biological target: Neu5Gc(a2-3)Gal(b1-3)GlcNAc
Procedure, shortened: as §1

[40] = biological target: Neu5Gc(a2-3)Gal(b1-3)[Fuc(a1-4)]GlcNAc
Procedure, shortened: as §1

[41] = biological target: Neu5Gc(a2-3)Gal(b1-4)Glc
Procedure, shortened: as §1

[42] = biological target: Neu5Gc(a2-3)Gal(b1-4)GlcNAc
Procedure, shortened: as §1

[43] = biological target: Neu5Gc(a2-3)Gal(b1-4)[Fuc(a1-3)]GlcNAc
Procedure, shortened: as §1

[44] = biological target: Neu5Gc(a2-6)Gal(b1-4)GlcNAc
Procedure, shortened: as §1

[45] = biological target: Neu5Gc(a2-6)GalNAc
Procedure, shortened: as §1

B1: MMR (Homo sapiens), P22897 (protein)
chain: MRLPLLLVFASVIPGAVLLLDTRQFLIYNEDHKRCVDAVSPSAVQTAACNQDAESQKFRWVSESQIMSVAFKLCLGVPSKTDWVAITLYACDSKSEFQKWECKNDTLLGIKGEDLFFNYGNRQEKNIMLYKGSGLWSRWKIYGTTDNLCSRGYEAMYTLLGNANGATCAFPFKFENKWYADCTSAGRSDGWLWCGTTTDYDTDKLFGYCPLKFEGSESLWNKDPLTSVSYQINSKSALTWHQARKSCQQQNAELLSITEIHEQTYLTGLTSSLTSGLWIGLNSLSFNSGWQWSDRSPFRYLNWLPGSPSAEPGKSCVSLNPGKNAKWENLECVQKLGYICKKGNTTLNSFVIPSESDVPTHCPSQWWPYAGHCYKIHRDEKKIQRDALTTCRKEGGDLTSIHTIEELDFIISQLGYEPNDELWIGLNDIKIQMYFEWSDGTPVTFTKWLRGEPSHENNRQEDCVVMKGKDGYWADRGCEWPLGYICKMKSRSQGPEIVEVEKGCRKGWKKHHFYCYMIGHTLSTFAEANQTCNNENAYLTTIEDRYEQAFLTSFVGLRPEKYFWTGLSDIQTKGTFQWTIEEEVRFTHWNSDMPGRKPGCVAMRTGIAGGLWDVLKCDEKAKFVCKHWAEGVTHPPKPTTTPEPKCPEDWGASSRTSLCFKLYAKGKHEKKTWFESRDFCRALGGDLASINNKEEQQTIWRLITASGSYHKLFWLGLTYGSPSEGFTWSDGSPVSYENWAYGEPNNYQNVEYCGELKGDPTMSWNDINCEHLNNWICQIQKGQTPKPEPTPAPQDNPPVTEDGWVIYKDYQYYFSKEKETMDNARAFCKRNFGDLVSIQSESEKKFLWKYVNRNDAQSAYFIGLLISLDKKFAWMDGSKVDYVSWATGEPNFANEDENCVTMYSNSGFWNDINCGYPNAFICQRHNSSINATTVMPTMPSVPSGCKEGWNFYSNKCFKIFGFMEEERKNWQEARKACIGFGGNLVSIQNEKEQAFLTYHMKDSTFSAWTGLNDVNSEHTFLWTDGRGVHYTNWGKGYPGGRRSSLSYEDADCVVIIGGASNEAGKWMDDTCDSKRGYICQTRSDPSLTNPPATIQTDGFVKYGKSSYSLMRQKFQWHEAETYCKLHNSLIASILDPYSNAFAWLQMETSNERVWIALNSNLTDNQYTWTDKWRVRYTNWAADEPKLKSACVYLDLDGYWKTAHCNESFYFLCKRSDEIPATEPPQLPGRCPESDHTAWIPFHGHCYYIESSYTRNWGQASLECLRMGSSLVSIESAAESSFLSYRVEPLKSKTNFWIGLFRNVEGTWLWINNSPVSFVNWNTGDPSGERNDCVALHASSGFWSNIHCSSYKGYICKRPKIIDAKPTHELLTTKADTRKMDPSKPSSNVAGVVIIVILLILTGAGLAAYFFYKKRRVHLPQEGAFENTLYFNSQSSPGTSDMKDLVGNIEQNEHSVI
glycan array binding signal (z-score) [1]: -0.337 | glycan array binding signal (z-score) [2]: -0.428 | glycan array binding signal (z-score) [3]: -0.402 | glycan array binding signal (z-score) [4]: -0.439 | glycan array binding signal (z-score) [5]: -0.442 | glycan array binding signal (z-score) [6]: 0.843 | glycan array binding signal (z-score) [7]: -0.22 | glycan array binding signal (z-score) [8]: -0.365 | glycan array binding signal (z-score) [9]: -0.424 | glycan array binding signal (z-score) [10]: 0.374 | glycan array binding signal (z-score) [11]: 0.363 | glycan array binding signal (z-score) [12]: 0.087 | glycan array binding signal (z-score) [13]: -0.377 | glycan array binding signal (z-score) [14]: -0.363 | glycan array binding signal (z-score) [15]: -0.395 | glycan array binding signal (z-score) [16]: -0.381 | glycan array binding signal (z-score) [17]: -0.388 | glycan array binding signal (z-score) [18]: -0.307 | glycan array binding signal (z-score) [19]: -0.237 | glycan array binding signal (z-score) [20]: -0.378 | glycan array binding signal (z-score) [21]: -0.384 | glycan array binding signal (z-score) [22]: -0.407 | glycan array binding signal (z-score) [23]: -0.418 | glycan array binding signal (z-score) [24]: -0.449 | glycan array binding signal (z-score) [25]: 1.46 | glycan array binding signal (z-score) [26]: -0.155 | glycan array binding signal (z-score) [27]: -0.376 | glycan array binding signal (z-score) [28]: -0.398 | glycan array binding signal (z-score) [29]: 0.065 | glycan array binding signal (z-score) [30]: 0.684 | glycan array binding signal (z-score) [31]: 0.441 | glycan array binding signal (z-score) [32]: 0.829 | glycan array binding signal (z-score) [33]: 0.78 | glycan array binding signal (z-score) [34]: 0.262 | glycan array binding signal (z-score) [35]: 0.701 | glycan array binding signal (z-score) [36]: -0.43 | glycan array binding signal (z-score) [37]: -0.394 | glycan array binding signal (z-score) [38]: -0.397 | glycan array binding signal (z-score) [39]: 0.095 | glycan array binding signal (z-score) [40]: -0.05 | glycan array binding signal (z-score) [41]: -0.087 | glycan array binding signal (z-score) [42]: 0.122 | glycan array binding signal (z-score) [43]: -0.097 | glycan array binding signal (z-score) [44]: -0.08 | glycan array binding signal (z-score) [45]: -0.244
